In PubChem BioAssay AID488969 (Vanderbilt High Throughput Screening Facility, 2010):
The full ranking holds about 110,000 compounds; the median of “z-score” is about -0.1, and the highest 2% start at about 2. Some of the results follow. Calls of active or inactive are those of the source.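 The calls were made as follows: active = z-score in the third read window above 3 or below -3; inactive = the rest.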

Biological target: Metabotropic glutamate receptor 8 (Rattus norvegicus) (UniProt P70579)
Assay: mGluR8 Gi/Go-coupled signaling modulation – cell-based, rat, thallium flux, HTS, primary screen (AID 488969)
Conditions: HEK293 rat mGluR8, GIRK (G protein-gated inwardly rectifying potassium channel) thallium flux, FluoZin2; at 10 µM; stronger effect = higher value; submaximal glutamate (EC20) added with thallium

Chain of UniProt P70579 (P70579 whole entry, looked up): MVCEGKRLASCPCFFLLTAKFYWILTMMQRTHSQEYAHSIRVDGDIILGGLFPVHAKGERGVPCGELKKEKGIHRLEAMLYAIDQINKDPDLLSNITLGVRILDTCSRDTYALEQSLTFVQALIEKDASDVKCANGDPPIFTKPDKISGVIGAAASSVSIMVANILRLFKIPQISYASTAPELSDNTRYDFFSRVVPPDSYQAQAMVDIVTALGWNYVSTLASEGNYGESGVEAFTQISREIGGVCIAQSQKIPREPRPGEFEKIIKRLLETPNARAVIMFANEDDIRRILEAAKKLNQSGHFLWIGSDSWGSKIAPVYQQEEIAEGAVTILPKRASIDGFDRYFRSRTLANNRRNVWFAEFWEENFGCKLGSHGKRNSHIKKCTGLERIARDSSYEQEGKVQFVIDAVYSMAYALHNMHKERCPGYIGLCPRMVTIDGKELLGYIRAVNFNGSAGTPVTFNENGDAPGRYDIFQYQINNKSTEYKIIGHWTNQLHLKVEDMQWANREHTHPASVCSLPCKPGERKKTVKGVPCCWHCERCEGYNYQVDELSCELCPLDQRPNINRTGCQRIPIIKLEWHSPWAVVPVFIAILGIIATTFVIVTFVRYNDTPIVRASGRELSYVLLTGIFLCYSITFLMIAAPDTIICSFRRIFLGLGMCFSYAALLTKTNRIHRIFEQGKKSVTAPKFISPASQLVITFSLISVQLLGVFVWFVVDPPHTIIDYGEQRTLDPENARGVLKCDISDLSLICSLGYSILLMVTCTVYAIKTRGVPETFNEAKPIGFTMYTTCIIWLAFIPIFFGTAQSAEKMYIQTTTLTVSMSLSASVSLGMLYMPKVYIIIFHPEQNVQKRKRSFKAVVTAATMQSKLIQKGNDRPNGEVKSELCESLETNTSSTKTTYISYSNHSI

| SMILES | z-score |
| --- | --- |
| Cc1cc(Cl)ccc1OCc1nc(-c2ccc(O)cc2)n[nH]1 | 0.667 |
| COCC(C)n1c(C)cc(C(=O)CN2C(=O)NC(Cc3c[nH]c4ccccc34)C2=O)c1C (centres undefined) | 0.124 |
| Cc1ccc(C)c(N2CCN(C(=O)CCCOc3cc(=O)n(C)c4ccccc34)CC2)c1 | -0.499 |
| COc1ccc(CC(=O)n2nc(-c3ccccc3)nc2NCc2ccco2)cc1 | 0.156 |
| COC(=O)c1ccc(NC(=O)Nc2ccc(C)cc2)cc1 | -0.177 |
| Cc1c(NC(=O)CC(C)C)c(=O)n(-c2ccccc2)n1C | -0.124 |
| COc1cccc(-c2nnn(CCc3nn[nH]n3)n2)c1 | -0.296 |
| O=C(NC1CCCCC1)C(c1ccc2ncccc2c1)N(Cc1ccc(F)cc1)C(=O)c1cccs1 (centres undefined) | -1.37 |
| CCC(=O)N1CCc2cc(S(=O)(=O)NC(C(=O)NCc3ccc(C)cc3)C(C)C)ccc21 (centres undefined) | -0.0271 |
| O=C(CSc1nc2nc3c(cc2c(=O)n1-c1ccccc1)CCCC3)Nc1cccc2ccccc12 | -0.235 |
| CC(=C1C(=O)c2ccccc2C1=O)N1CCN(c2ccccn2)CC1 | -0.168 |
| Cc1sc(NC(=O)CSc2nnc(COc3ccccc3)n2C)c(C#N)c1C | -0.0357 |
| Cc1cc(C)cc(-n2nnnc2SCC(=O)Nc2nc(-c3ccc(Cl)cc3)cs2)c1 | -0.402 |
| Cc1ccc(C)c(OC(=O)c2ccncc2)c1 | 0.332 |
| CCCCOc1ccc(S(=O)(=O)n2c(C)nc3ccccc32)cc1 | 0.0747 |
| CC(=O)Nc1ccc(C(=O)NNC(=O)CCc2ccccc2)cc1 | -0.185 |
| O=C(Nc1ccc2c(c1)CCC2)c1ccc(F)c(S(=O)(=O)N2CCOCC2)c1 | 0.196 |
| COC(=O)c1cc(C)sc1NC(=O)C1CC(=O)NN1Cc1ccccc1 (centres undefined) | -0.194 |
| Cc1ccc2oc(=O)n(Cc3ccccc3OC(C)C)c2c1 | -0.597 |
| COc1cc(/C=N/NC(=S)Nc2cccc(C(=O)O)c2)ccc1O | -0.08 |
| O=C(NNS(=O)(=O)c1ccc(Cl)cc1)c1sccc1-n1cccc1 | 0.249 |
| Oc1c(Cl)cc(Cl)cc1C(C#Cc1ccccc1)N1CCOCC1 (centres undefined) | -0.0165 |

| SMILES | z-score |
| --- | --- |
| COc1cccc(CN2C(=O)CN(C3CCCCC3)C(=O)C2c2ccc(F)cc2)c1 (centres undefined) | -0.68 |
| C/C(=N\NC(=O)c1nc(C)cc(C)n1)c1ccccc1 | 0.424 |
| CC(C)CCNC(=O)C(c1ccco1)N(CC1CCCO1)C(=O)Cn1nnc2ccccc21 (centres undefined) | -0.844 |
| Cc1cc(C)c2c(N)c3ccccc3nc2n1 | -0.0162 |
| COc1ccc(/C=C/C(=O)c2sc(-c3ccccc3)nc2C)cc1 | 0.276 |
| Cc1ccc2nc3c(cc(C(=O)NCC4CCCO4)c(=N)n3CCCOC(C)C)c(=O)n2c1 (centres undefined) | -0.201 |
| COc1cc(C(=O)N2CCN(C(=O)c3ccco3)CC2)cc(OC)c1OC | -0.34 |
| CC1(C)Cc2nc3[nH]c(=S)n(-c4ccccc4)c(=O)c3cc2CO1 | -0.126 |
| O=C1CC(c2ccc(F)cc2)Sc2ccccc2N1 (centres undefined) | -0.241 |
| O=C(/C=C/C=C/c1ccccc1)CC1(O)C(=O)N(CCc2ccccc2)c2ccccc21 (centres undefined) | -0.052 |
| O=C(CSc1ccc(C(F)(F)F)cc1[N+](=O)[O-])Nc1ccc2ccccc2c1 | -0.315 |
| Cn1c(CCC(=O)Nc2ccc(N3CCOCC3)cc2)nc(=O)c2ccccc21 | 0.118 |
| CCOc1ccc(OCCOCCN2CCOCC2)cc1 | 0.413 |
| O=c1c2cc(N3CCOCC3)ccc2[nH]c(=S)n1Cc1cccc(Cl)c1 | 0.348 |
| CCOc1ccc(NC(=O)[C@@H](NC(=O)c2ccccc2Br)C(C)C)cc1 | 1.11 |
| COc1ccc(CN(C)C2CCCCC2)c(C)c1C | 0.366 |
| COc1ccc(CC(=O)Nc2cc(=O)n(C)c(=O)n2C)cc1 | 2.78 |
| CCOC(=O)C1CCN(c2ncnc3c2cnn3-c2ccc(Cl)cc2)CC1 | -0.452 |
| CC(=O)c1ccc(NC(=O)CN2CCN(c3ncccn3)CC2)cc1 | -0.451 |
| O=C(COc1cccc2c1CCN(Cc1ccc(Br)cc1)C2=O)NCc1ccco1 | -0.582 |
| CCc1cccc2c(C#N)cn(CCOc3ccccc3OC)c12 | -0.0933 |
| C(=N\Nc1ccc(-n2ccnc2)nn1)/c1ccccc1 | -0.435 |

| SMILES | z-score |
| --- | --- |
| CCn1c(-c2ccccc2Cl)nn(CC(=O)NCCc2ccccc2)c1=S | -0.24 |
| Cc1ccc(Nc2oc(C)nc2C#N)cc1 | 0.594 |
| CCCCn1nnnc1SCC(=O)Nc1cccc(C)n1 | -0.0907 |
| Cc1ccc(-n2cc(-c3ccc([N+](=O)[O-])cc3)[nH]c2=S)c(C)c1 | 2.99 |
| CC(=O)SC(C[N+](=O)[O-])c1cn(C(C)=O)c2ccccc12 (centres undefined) | -0.232 |
| CCOC(=O)c1sc(N)c(C#N)c1CSc1nc2ccc(C)cc2[nH]1 | 0.187 |
| CC(C)(C)c1cc(C(F)(F)F)nc(SCCCNC(=O)c2ccco2)n1 | -0.564 |
| O=C(Nc1nc2ccc(SC(F)F)cc2s1)c1ccc(NS(=O)(=O)c2ccc(F)c(F)c2)cc1 | -1.29 |
| Cc1cc(C)cc(NC(=O)CSc2nnc(CNC(=O)c3cccs3)o2)c1 | -0.296 |
| O=C(Cn1nnc2ccccc21)c1ccccc1 | 0.105 |
| CCOc1ccccc1NC(=O)c1cc(Cl)ccc1NC(=O)c1ccco1 | -0.11 |
| CNC(=O)c1ccccc1NC(=O)c1c(O)c2c([nH]c1=O)CCCC2 | 0.0703 |
| CCCN1C(=O)c2ccc(C(=O)NC3CCCCC3)cc2C1=O | -0.0494 |
| CSc1cc(-c2ccc(Cl)cc2)n(Cc2ccccc2)c(=O)c1C#N | -0.0166 |
| O=C(c1ccco1)N1CCN(C(=O)C(Sc2ccccc2)c2ccccc2)CC1 (centres undefined) | -0.779 |
| COc1ccc(C(=O)Nc2cc(C(=O)c3ccccc3)c(C)oc2=O)cc1 | 0.0879 |
| Cc1nc2ccc(NS(=O)(=O)c3ccc(C)c(C)c3)cc2s1 | -0.187 |
| Cc1ccc(-c2nnc(N(C)C(=O)C3CCCO3)s2)cn1 (centres undefined) | -0.404 |
| CCCCC(C(=O)NC1CCCC1)N(Cc1ccco1)C(=O)Cn1nnc(-c2ccc(F)cc2)n1 (centres undefined) | -0.0656 |
| O=C(CNC(=O)c1ccco1)NCC(=O)OCc1ccc(Cl)cc1 | 0.054 |
| COc1ccc(C2CC(=O)c3cnc(N)nc3C2)c(OC)c1 (centres undefined) | -0.296 |
| COC(=O)c1cccc(NC(=O)COC(=O)CSc2nc(C)cc(C)n2)c1 | -0.0777 |

| SMILES | z-score |
| --- | --- |
| O=C(Cn1cc2c(n1)CCCC2)NCCCN1CCCC1 | 0.0617 |
| COc1ccc(S(=O)(=O)C(C#N)c2nc3ccccc3nc2N2CCCC(C)C2)cc1 (centres undefined) | -0.767 |
| CCOc1cc(/C=C\[N+](=O)[O-])ccc1OCC(=O)Nc1ccccc1C | -0.78 |
| CC(C)OC(=O)CSc1nnc(-c2ccncc2)n1N | -0.188 |
| Cc1cc(=O)oc2ccc(OC(C)C(=O)O)cc12 (centres undefined) | 0.0783 |
| CCC(C)C(NC(C)=O)C(=O)NC(=O)NC(c1ccccc1)c1ccccc1 (centres undefined) | -1.02 |
| CCc1c(O)nc(SCC(N)=O)n(-c2ccccc2F)c1=O | 1.42 |
| O=C(CCc1ccc(O)c(O)c1)NNC(=S)NCCc1ccccc1 | -0.211 |
| CS(=O)(=O)c1ccc(C(=O)NC2CCCCC2)cc1 | 0.0254 |
| Cc1ccc(/C=C/c2ccc(=O)n(Cc3ccc(Cl)cc3Cl)n2)cc1 | -0.304 |
| CCN1CCCC1CNC(=O)c1cn(C)c2ccc(S(=O)(=O)N3CCCCCC3)cc2c1=O (centres undefined) | 1.29 |
| O=C(NC1CCCCC1)C(c1cccs1)N(C(=O)c1ccccn1)c1ccccc1 (centres undefined) | -0.11 |
| Cc1ccc(CN(C)CCc2ccccn2)cc1 | 0.541 |
| CC(=O)Nc1cccc(N2C(=O)CC(N3CCC(C(=O)N4CCCCC4)CC3)C2=O)c1 (centres undefined) | -0.567 |
| CCOC(=O)C1=NN(N=O)C2(CC(=O)N(c3cc(C)cc(C)c3)C2=O)C1 (centres undefined) | -0.893 |
| CO/N=C(/CS(=O)Cc1ccccc1Cl)c1ccc(Cl)cc1Cl (centres undefined) | -0.933 |
| CCN(c1cccc(C)c1)S(=O)(=O)c1cccc(C(=O)O)c1 | -1.32 |
| Cc1cccc(C(=O)N/N=C/c2ccc[nH]2)c1 | -0.21 |
| COc1cc([N+](=O)[O-])ccc1NC(=O)CSc1nc2ccccc2n1-c1ccccc1 | 0.182 |
| O=C(O)CCCN1C(=O)C2C3CCC(O3)C2C1=O (centres undefined) | -0.35 |
| O=C1CCC(C(=O)OC(C(=O)c2c[nH]c3ccccc23)c2ccccc2)=NN1 (centres undefined) | -0.136 |
| Cc1ccc(-c2nc3ncccc3o2)cc1NC(=O)c1ccco1 | -0.0446 |

| SMILES | z-score |
| --- | --- |
| Cc1ccc(C)c(C(=O)NC2CC(C)(C)NC(C)(C)C2)c1 | -0.211 |
| CCN=C1SC(C(N)=O)CC(=O)N1CC (centres undefined) | 0.556 |
| Cc1cc(NC(=O)COc2nnc(-c3ccccc3)c3ccccc23)no1 | -0.0657 |
| O=C(NC(=S)N1CCN(c2ccc(C(F)(F)F)cc2[N+](=O)[O-])CC1)c1cccs1 | active: 8.9 |
| CCOC(=O)C(NC(=O)CC)(N1CCc2ccccc2C1)C(F)(F)F (centres undefined) | -0.138 |
| O=C(O)c1ccc(-c2nc(-c3ccccc3)c(-c3ccccc3)[nH]2)cc1 | -1.56 |
| CCn1c2ccccc2c2nnc(SCCCn3c(=O)[nH]c4ccccc43)nc21 | -0.382 |
| Cc1cccn2c(=O)c3cc(C(=O)NCc4ccco4)c(=N)n(CCOCCO)c3nc12 | 1.43 |
| COc1ccc(NC(=O)c2sc3cc(C(F)(F)F)cnc3c2-c2cccs2)cc1 | 0.0731 |
| CN(C)S(=O)(=O)c1ccc(Cl)c(C(=O)Nc2ccccc2[N+](=O)[O-])c1 | -0.21 |
| CC(C)CC(OC(=O)c1ccco1)C(=O)NC1CCCCC1 (centres undefined) | -0.873 |
| Cc1cccc(NC(=O)Cc2ccc(F)cc2)c1 | 1.28 |
| Cc1ccc(-c2cc(C(=O)N/N=C/C=C/c3ccco3)c3ccccc3n2)cc1C | 2.64 |
| COc1ccc(C2C(C(C)=O)=C(C)Nc3ncnn32)cc1OC (centres undefined) | 0.388 |
| CN(C(=O)CSc1nc(-c2ccc(F)cc2)cs1)C1CCS(=O)(=O)C1 (centres undefined) | -0.115 |
| Cc1ccc(C(=O)c2oc3ccccc3c2NC(=O)c2cc(-c3ccccc3O)n[nH]2)cc1 | 0.291 |
| O=C1OC(c2ccccc2)=C/C1=C/N1CCOCC1 | -0.0331 |
| CCOC(=O)C1CCCN(C2CC(=O)N(c3ccc(C)cc3)C2=O)C1 (centres undefined) | 0.314 |
| Cc1ccc(/C=N\Nc2nc3ccc(Cl)cc3[nH]2)o1 | -0.417 |
| Cc1ccccc1/C=N\NC(=O)c1csnn1 | -0.102 |
| O=C(NCCCN1CCCCCC1)c1ccc2c(c1)NC(=O)C(N1CCOCC1)S2 (centres undefined) | 0.756 |
